Drawing on the RNAGym collection of RNA variant scans (doi:10.7554/elife.90254), this text covers self-cleavage for 167 variants.

Sequences and labels used below:
B1: LINE1-mini (parent)
chain: GGCAGAGCUCAACACAGCGUGGCAAAGUGGCUGUGGCUAGACUGCC

Read counts are not given, so values of variants with three or more changes are uncertain.

The data set covers variants of B1. Briefly: self-cleavage, relative activity (ratio to wild type); higher = more cleavage; in vitro, sequencing; the parent is a self-cleaving ribozyme.
For G5A C23G G44U, the self-cleavage stood at 0.12.
In the case of A4U U28C C31G it was 0.02; in that of G5A G7A A12C G40C C42G C45U, 0.02.
On to G5A C13U A24G C31G G35A, for which the self-cleavage stood at 0.04.
In the case of A4U C23G A24G C31A it was 0.11; in that of G5A A6G C31U C37U A39U A41U, 0.03; in that of G5A C15G U32A, 0.01.
Regarding G5A G22C U34A G35U, the self-cleavage came to 0.06.
In the case of A4U G35A U38C U43G it was 0.01.
In the case of A4U U20A A39G it was 0.05; in that of G5A A12G G17U G40C, 0.06; in that of A4U G21C U28A G30C, 0.05.
As to A4U U9C A14C A25U, the self-cleavage was found to be 0.12.
In the case of G5A C15A G36C G40U it was 0.01; in that of A4U U32G C45G C46A, 0.02; in that of G5A A14U U34G G35A G44A, 0.01.
As for A4U G17U A25U G36C, the self-cleavage was 0.01.
In the case of A4U U34C U38C it was 0.3.
In the case of G5A G19U U34C U38A A41C it was 0.01; in that of G5A G30U C45A, 0.07; in that of A4U G5A A12U U28C, 0.02.
In the case of G5A C18U G40A A41U it was 0.06; in that of G5A G36U C46A, 0.05; in that of A4U C15U G17C A24G C31U G40A, 0.02.
For the variant G5A G7C C31G G33A C46U, the self-cleavage stood at 0.03.
In the case of G5A A6U A24C C37A it was 0.02; in that of A4U G22U G30U C42G, 0.02; in that of G5A C10U A12G C18A A25C G35U A39U, 0.03.
In the case of A4U U9A U43G C45U it was 0.37.
In the case of G5A A6U C23A G35U it was 0.14.
In the case of G5A G21C C23G A39G G44A, the self-cleavage was 0.07.
In the case of G5A A6C C31A A39G it was 0.02; in that of G5A G7A A14U U34G, 0.3.
In the case of A4U U9G A16G G35A it was 0.11; in that of G5A G27C G29U G36C U38C, 0.
In the case of G5A G36C C42U it was 0.09.
For the variant G5A A11U C23U G35C G36A, the self-cleavage was found to be 0.
In the case of A4U G29C C42G it was 0.13; in that of G5A G30C U34G A39G, 0.12; in that of A4U G7U G27U, 2.56.
With G5A G17A A25C A41U C42U, the self-cleavage came to 0.05.
Take G5A G7C A12G C18G A26G G27A A41C C42G: the self-cleavage came out at 0.17.
For the variant A4U C23G A25G G29U G36U, the self-cleavage came out at 0.03.
In the case of G5A G7C C15G C18A C23U A26U G35A it was 0.06.
In the case of A4U C15U G40A it was 0.04.
In the case of G5A C10U G19U A26C it was 0.04; in that of A4U G27A U38A A41G C42G, 0.09.
Regarding G5A G17U G21A G35A, the self-cleavage came to 0.
In the case of A4U G7A C10G U20C U34A A41U it was 0.01; in that of G5A A24C G33U U34C, 0.08; in that of G5A G17A A25U G30A, 0.15.
For the variant A4U G7U G40A G44U, the self-cleavage stood at 0.19.
In the case of G5A A25U G33C it was 0.13.
Consider G5A C10U G22C, for which the self-cleavage is 0.05.
As for A4U G29U G40C U43A, the self-cleavage amounted to 0.06.
Regarding G5A C10G C15U A26C, the self-cleavage came out at 0.06.
In the case of G5A G7A A26U, the self-cleavage stood at 0.53.
In the case of G5A C13G A24G it was 0.21.
In the case of G5A C18U A25C A39U it was 0.01.
As for G5A A12G U20C G29U, the self-cleavage is 0.02.
In the case of G5A A11G C18U G40A it was 0.02; in that of G5A C8G C23U G40U, 0.02; in that of G5A G29U C45G, 0.03.
For G5A C10U A11G G29U C42A, the self-cleavage came out at 0.01.
In the case of G5A G17C A25U U32G it was 0.04; in that of A4U C23U G30A, 0.2.
Turning to G5A G40U U43C, the self-cleavage came out at 0.03.
In the case of G5A C13U C15A G22A C31G G33U A41G, the self-cleavage turned out to be 0.07.
In the case of A4U G5C U28A C46G it was 0.02; in that of G5A A6C A26G, 0.5; in that of G5A G17U U38A C42G, 0.03.
In the case of G5A G7C C15U it was 0.38; in that of G5A C23A A25U, 0.26; in that of G5A C10A G35C, 0.
On to A4U G7C G17A G30U, for which the self-cleavage worked out at 0.04.
In the case of G5A C18U G33A it was 0.04; in that of G5A C8U C10U C15A G21U U34C, 0.04; in that of G5A U9C U20G G44C, 0.02.
As for G5A G7C C15U G36U C42G U43C, the self-cleavage was found to be 0.11.
Turning to A4U G5U C15A G17U G44U, the self-cleavage came to 0.03.
As for G5A U9A U20G G40U G44U, the self-cleavage was determined as 0.28.
For the variant G5A A24G G27C, the self-cleavage was 0.16.
In the case of G5A C8A C45U it was 0.73.
As to G5A G7U C13U, the self-cleavage came out at 1.85.
In the case of G5A A6U U43A it was 0.02; in that of G5A A6U A16G A25U G35A C45G, 0.02; in that of A4U G27C G29C, 0.31.
For G5A G7A A14C A24U G30A G33C G36U A39U C42A, the self-cleavage came out at 0.04.
In the case of G5A G30C U43G it was 0.02; in that of G5A A6G C8A A14G A24G U34A A41U, 0.46; in that of G5A A12C G30C C31G G35A C37A, 0.
Consider G5A A12U G27U G35U, for which the self-cleavage came out at 0.04.
In the case of G5A G7A G33C it was 0.16; in that of A4U C18A G30A, 0.03; in that of G5A G17U U20G G33U G35A, 0.03.
In the case of G5A A6C U9G A26G A39G it was 0.21; in that of G5A G35U C46A, 0.03; in that of A4U U20G A26G G27U U28G C37A C45U, 0.03.
For G5A G30U G36U, the self-cleavage came to 0.27.
In the case of G5A U9A G17C A24G G33A it was 0.19.
Regarding G5A C23U C45U, the self-cleavage was found to be 0.13.
In the case of G5A G7U A26U it was 1.23; in that of G5A A14G A16G U32C, 0.08; in that of A4U U9G U34A C37G, 0.05.
In the case of A4U U20G G35A, the self-cleavage worked out at 0.05.
In the case of A4U G21A G22C A26C U32G it was 0.06.
In the case of A4U C15U C18G C31A it was 0.22; in that of G5A G17U C18G G29U U38C, 0.05; in that of G5A A16G A25U, 0.12.
In the case of G5A A25G U34A G35U C42G it was 0.01; in that of G5A A12U A25C G36A G40C C42U U43C, 0.01; in that of A4U G5A A6U U28C, 0.08.
With G5A C10G G44U, the self-cleavage came out at 0.02.
In the case of G5A C13U G29A it was 0.16; in that of G5A G7U U9A, 0.56.
In the case of A4U G33A G44U it was 0.01.
In the case of G5A G17U G44A it was 0.01.
Regarding G5A G7A A25C C31U, the self-cleavage is 0.16.
In the case of G5A G33A G35U it was 0.11.
A4U G35U C46G: the self-cleavage was 0.05.
In the case of A4U C23A A24G G29A it was 0.08; in that of A4U G22A G35C, 0.02; in that of G5A C8U C15G, 0.58.
In the case of A4U G7A A39U it was 0.1.
In the case of A4U G5A G17U G19U it was 0.02.
In the case of G5A A6G A25U, the self-cleavage worked out at 0.1.
In the case of A4U G29U G30A A41C it was 0.08; in that of A4U C15U G19A U20A G29U, 1.01; in that of A4U G21A G33A A39U, 0.05.
In the case of A4U G5A G40U it was 0.07; in that of G5A U9G C46G, 0.15; in that of A4U G21U C31G, 0.03.
Consider A4U G22C G30C, for which the self-cleavage was 0.14.
In the case of A4U C31U C45G it was 0.07; in that of G5A A6G C15A G40C, 0.06.
A4U G5A U28C C31U: the self-cleavage worked out at 0.08.
G5A U9A A11U C13U C23A U28G G35A: the self-cleavage was found to be 0.05.
In the case of G5A C15U A25C G29A G33C it was 0.03.
In the case of G5A A11C C42A it was 0; in that of G5A G19C C23U A25U, 0.03; in that of A4U G5A G7U C10A C23G G27A, 0.04.
In the case of G5A C10A C31G it was 0.03.
G5A G7A G33U G40U G44C: the self-cleavage came to 0.22.
In the case of G5A C15A A26U it was 0.16; in that of A4U C15U A16U G19U, 0.03; in that of G5A A25G A26U U28G, 0.09.
In the case of A4U G22U C23U A39U it was 0.08; in that of G5A G30A U43A G44U C46A, 0.02.
In the case of G5A C18G C37A it was 0.16.
Regarding G5A C37A G44C, the self-cleavage was 0.02.
In the case of G5A C10U G17C G21C G40C it was 0.02.
In the case of G5A G40C A41U it was 0.1; in that of G5A C8U U9A A14U G40U, 0.09; in that of G5A A16U C23U U43A G44A C45U, 0.02.
In the case of A4U C31A G33U it was 0.05; in that of A4U U9G A25G G35C G40C, 0.21.
Turning to A4U G5C C45U, the self-cleavage turned out to be 0.05.
In the case of A4U G7A G22U U38C G40U A41C C46G it was 0.1.
In the case of G5A C18U G22U C45A it was 0.03.
In the case of A4U G7A C8U it was 0.17; in that of G5A A11G G40C, 0.01; in that of G5A C8G G27C C31U, 0.02.
G5A U20A G30U C46U: the self-cleavage is 0.03.
Turning to A4U G19U A24C A26U, the self-cleavage stood at 0.02.
In the case of G5A C10A U32C G40A it was 0.02; in that of G5A A25U G30C C45A, 0.02; in that of A4U G27A G33A G40A, 0.07.
